Results from patent US20240010684A1, “MASP INHIBITORY COMPOUNDS AND USES THEREOF” (BAYER AKTIENGESELLSCHAFT, priority 2020, published 2024).
Part of at least one peptide drawing is inferred or uncertain, most often the ends. Where a SMILES comes first, the peptide text is derived from it. Bridges are numbered along the chain shown (N, C = ends). [ ]: non-standard residue; d: D form. tBuAla = CC(C)(C)C[C@H](N)C(=O)O; Pen = CC(C)(S)[C@H](N)C(=O)O; Ahx = NCCCCCC(=O)O

Legend:
human MASP1 = human MASP1 (Homo sapiens (Human), UniProt P48740); experiment: Biochemical human MASP1 assay (FRET substrate); details: Average IC50; recombinant human MASP1
Chain of human MASP1 (P48740 other isoform, or with tags, fused parts or gaps): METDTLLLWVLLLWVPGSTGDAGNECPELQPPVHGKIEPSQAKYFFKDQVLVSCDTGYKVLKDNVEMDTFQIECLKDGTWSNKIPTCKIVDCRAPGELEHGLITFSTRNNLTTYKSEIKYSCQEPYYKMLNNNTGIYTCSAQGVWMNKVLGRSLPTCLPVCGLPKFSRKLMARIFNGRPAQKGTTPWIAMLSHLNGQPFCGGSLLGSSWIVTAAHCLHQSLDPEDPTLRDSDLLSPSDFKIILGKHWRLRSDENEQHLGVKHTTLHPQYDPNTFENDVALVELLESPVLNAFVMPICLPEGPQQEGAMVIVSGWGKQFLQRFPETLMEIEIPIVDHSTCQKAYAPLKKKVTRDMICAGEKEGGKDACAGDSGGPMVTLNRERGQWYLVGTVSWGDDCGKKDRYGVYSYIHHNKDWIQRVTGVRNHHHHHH
Source text: A truncated cDNA sequence of human MASP1 encoding the fragment corresponding to the amino acids 297-699 with a C-terminal His Tag and N-terminal Ig-kappa secretion signal (SEQ ID No: 2) was subcloned into the mammalian expression vector pcDNA3.1 (Invitrogen).
The MASP1 or MASP2 expression vectors were transfected into the HEK293 (ATCC No. CRL-1573) cell line using Lipofectamine LTX® Reagent (Thermo-Fischer), as described by the manufacturer. The mature form of the recombinant human MASP1 and MASP2 proteases were secreted into the culture medium. The MASP1 and MASP2 proteins were purified from the conditioned media by affinity chromatography on Ni-NTA Superflow resin (Qiagen) as described by the manufacturer.
2.2 Biochemical Human MASP1 Assay
Recombinant human MASP1 enzyme produced in the HEK 293 cells was diluted in the reaction buffer (50 mM HEPES pH 8,0; 100 mM NaCl; 0,01% CHAPS; 0.5 mM Gluthathione) to the concentration of 20 nM and 25 μl was transferred into each single well of 384-well white microtiter plate (Greiner Bio One 781075). 1 μl of the inhibitor compound solution (dissolved in DMSO, at the corresponding concentration) or pure DMSO as a control was added to the same wells. The enzymatic reaction was initiated by addition of 25 μl of 20 μM solution of the FRET substrate ABZ-[…]-Lys (Dnp)-NH2; (ABZ-2-aminobenzoyl; DNP 2,4-dinitrophenyl; custom synthesis by Jerini Peptide Technologies, Berlin) in the reaction buffer. The microtiter plate was incubated for 60-120 min at the temperature of 32 C. The increase of fluorescence intensity was measured in appropriate fluorescence plate reader (e.g. TECAN Ultra) using excitation wavelength of 320 nm and emission wavelength of 420 nm. IC50 values were calculated from percentage of inhibition of human MASP1 activity as a function of test compound concentration.

[1] = tested on: Human C3-DEPOSITION SERUM; experiment: C3 deposition assay, human serum on mannan-coated plates; assay type: biochemical; details: Average IC50
Procedure, shortened: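 Plates coated overnight at 4° C with S. cerevisiae mannan (10 μg/mL, pH 9.6), blocked with 1% BSA in TBS 2 h at 37° C; washes in TBS/0.05% Tween 20/5 mM CaCl2. Antibodies diluted in wash buffer with 0.5% BSA. Colorimetric read-out at 450 nm.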

human MASP2 = human MASP2 (Homo sapiens (Human), UniProt O00187); experiment: Biochemical human MASP2 assay (FRET substrate); details: Average IC50; recombinant human MASP2
Chain of human MASP2 (O00187 other isoform, or with tags, fused parts or gaps): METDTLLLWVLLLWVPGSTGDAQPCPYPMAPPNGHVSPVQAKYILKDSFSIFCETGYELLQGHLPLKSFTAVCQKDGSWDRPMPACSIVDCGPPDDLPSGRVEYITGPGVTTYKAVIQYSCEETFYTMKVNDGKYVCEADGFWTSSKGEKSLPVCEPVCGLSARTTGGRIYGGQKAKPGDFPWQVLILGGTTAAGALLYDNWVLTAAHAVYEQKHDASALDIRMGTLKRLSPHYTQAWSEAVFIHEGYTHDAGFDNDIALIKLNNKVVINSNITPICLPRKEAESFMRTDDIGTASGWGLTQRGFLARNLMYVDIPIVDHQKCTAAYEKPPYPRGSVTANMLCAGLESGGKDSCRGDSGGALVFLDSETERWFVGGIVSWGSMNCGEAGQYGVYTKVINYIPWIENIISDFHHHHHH
Source text: The MASP1 or MASP2 expression vectors were transfected into the HEK293 (ATCC No. CRL-1573) cell line using Lipofectamine LTX® Reagent (Thermo-Fischer), as described by the manufacturer. The mature form of the recombinant human MASP1 and M[…] were secreted into the culture medium. The MASP1 and M[…] were purified from the conditioned media by affinity chromatography on Ni-NTA Superflow resin (Qiagen) as described by the manufacturer. 2.3 Biochemical Human MASP2 Assay […] The enzymatic reaction was initiated by addition of 25 μl of 60 μM solution of the FRET substrate DABCYL-[…]; […] The microtiter plate was incubated for 60-120 min at the temperature of 32 C. The increase of fluorescence intensity was measured in appropriate fluorescence plate reader (e.g. TECAN Ultra) using excitation wavelength of 340 nm and emission wavelength of 490 nm. IC50 values were calculated from percentage of inhibition of human MASP2 activity as a function of test compound concentration.

rat C3-DEPOSITION SERUM = experiment: C3 deposition assay, rat serum on mannan-coated plates; assay type: biochemical; details: Average IC50

Row | SMILES | IC50 (human MASP1) [nM] | IC50 [1] [nM] | IC50 (human MASP2) [nM] | IC50 (rat C3-DEPOSITION SERUM) [nM]
1 | CC[C@H](C)[C@@H]1NC(=O)CNC(=O)CCCCCNC(=O)[C@H](CC(=O)O)NC(=O)[C@@H]2CCCN2C(=O)[C@H]([C@@H](C)CC)NC(=O)[C@@H]2CSSC[C@H](NC1=O)C(=O)N[C@@H](CO)C(=O)N[C@@H](CCCNC(=N)N)C(=O)N[C@@H](CO)C(=O)N[C@@H](CC(C)C)C(=O)N1CCC[C@H]1C(=O)N1CCC[C@H]1C(=O)N[C@@H]([C@@H](C)CC)C(=O)N2 [Example 13, [(6S,9S,12S,15S,18R,21S,34S,36aS,42S,45R,48S,50aS,55aS)-21,42,48-tri[(2S)-butan-2-yl]-12-(3-carbamimidamidopropyl)-9,15-bis(hydroxymethyl)-6-(2-methylpropyl)-5,8,11,14,17,20,23,26,33,36,41,44,47,50,55-pentadecaoxotetrapentacontahydro-1H-18,45-(methanodithiomethano)tripyrrolo[2,1-f:2′,1′-r:2″,1″-u][1,4,7,10,13, 16,19,22,25,28,31,34,37,40,43]pentadecaazacyclononatetracontin-34-yl]acetic acid] (cyclo([Ahx]GICSRSLPPICIPD); disulfide 4-12) | 140 | 351 |  | 
2 | CC[C@H](C)[C@@H]1NC(=O)[C@H](N)CCCCNC(=O)[C@H]([C@@H](C)CC)NC(=O)[C@H]2NC(=O)[C@H]([C@@H](C)CC)NC(=O)[C@@H]3CCCN3C(=O)[C@@H]3CCCN3C(=O)[C@H](CC(C)(C)C)NC(=O)[C@H](CO)NC(=O)[C@H](CCCNC(=N)N)NC(=O)[C@H](CO)NC(=O)[C@H](CSSC2(C)C)NC1=O [Example 78, N-{3-[(5aS,11S,14S,17S,20S,23R,26S,29R,36S,39R,42S,44aS)-29-amino-26,36,42-tri[(2S)-butan-2-yl]-11-(2,2-dimethylpropyl)-14,20-bis(hydroxymethyl)-45,45-dimethyl-5,10,13,16,19,22,25,28,35,38,41,44-dodecaoxodotetracontahydro-1H,5H-23,39-(methanodithiomethano)dipyrrolo[2,1-1:2′,1′-o][1,4,7,10,13,16,19,22,25,28,31,34]dodecaazacyclotetracontin-17-yl]propyl}guanidine hydrogen chloride] (H-[dK]ICSRS[tBuAla]PPI[Pen]I; lactam 1-C; disulfide 3-11) | 10 | 12 | 7 | 
3 | CC[C@H](C)[C@@H]1NC(=O)[C@H](N)CCCCNC(=O)[C@H]([C@@H](C)CC)NC(=O)[C@H]2NC(=O)[C@H]([C@@H](C)CC)NC(=O)[C@@H]3CCCN3C(=O)[C@@H]3CCCN3C(=O)[C@H](CC(C)(C)C)NC(=O)[C@H](CO)NC(=O)[C@H](CCCNC(=N)N)NC(=O)[C@H](CO)NC(=O)[C@H](CSSC2(C)C)NC1=O [Example 80, N-{3-[(5aS,11S,14S,17S,20S,23R,26S,29R,36S,39R,42S,44aS)-29-amino-26,36,42-tri[(2S)-butan-2-yl]-11-(2,2-dimethylpropyl)-14,20-bis(hydroxymethyl)-45,45-dimethyl-5,10,13,16,19,22,25,28,35,38,41,44-dodecaoxodotetracontahydro-1H,5H-23,39-(methanodithiomethano)dipyrrolo[2,1-1:2′,1′-o][1,4,7,10,13,16,19,22,25,28,31,34]dodecaazacyclotetracontin-17-yl]propyl}guanidine] (H-[dK]ICSRS[tBuAla]PPI[Pen]I; lactam 1-C; disulfide 3-11) | 11 | 13.9 | 6.8 | 
4 | CC[C@H](C)[C@@H]1NC(=O)CNC(=O)CCCCCNC(=O)[C@H](CC(=O)O)NC(=O)[C@@H]2CCCN2C(=O)[C@H]([C@@H](C)CC)NC(=O)[C@@H]2CSSC[C@H](NC1=O)C(=O)N[C@@H](CO)C(=O)N[C@@H](CCCNC(=N)N)C(=O)N[C@@H](CO)C(=O)N[C@@H](CC(C)C)C(=O)N1CCC[C@H]1C(=O)N1CCC[C@H]1C(=O)N[C@@H]([C@@H](C)CC)C(=O)N2 [Example 94] (cyclo([Ahx]GICSRSLPPICIPD); disulfide 4-12) | 120 | 1020 | 130 | 
5 | CC[C@H](C)[C@@H]1NC(=O)CNC(=O)[C@H](CC(=O)O)NC(=O)[C@@H]2CCCN2C(=O)[C@H]([C@@H](C)CC)NC(=O)[C@@H]2CSSC[C@H](NC1=O)C(=O)N[C@@H](CO)C(=O)N[C@@H](CCCNC(=N)N)C(=O)N[C@@H](CO)C(=O)N[C@@H](CC(C)C)C(=O)N1CCC[C@H]1C(=O)N1CCC[C@H]1C(=O)N[C@@H]([C@@H](C)CC)C(=O)N2 [Ref. No 7, reference compound] (cyclo(CIPDGICSRSLPPI); disulfide 1-7) |  | 1120 |  | 100000
6 | CC[C@H](C)[C@@H]1NC(=O)[C@@H]2CSSC[C@H](NC(=O)[C@H](Cc3ccc(O)cc3)NC(=O)CNC(=O)[C@H](CC(=O)O)NC(=O)[C@@H]3CCCN3C1=O)C(=O)N[C@@H](CO)C(=O)N[C@@H](CCCNC(=N)N)C(=O)N[C@@H](CO)C(=O)N[C@@H](Cc1ccc(O)cc1)C(=O)N1CCC[C@H]1C(=O)N1CCC[C@H]1C(=O)N[C@@H](C(C)C)C(=O)N2 [Ref. No 8, reference compound] (cyclo(CIPDGYCSRSYPPV); disulfide 1-7) |  | 2600 |  | 100000
